# Assay results taken from ChEMBL document CHEMBL4888484, “Replenishing the malaria drug discovery pipeline: Screening and hit evaluation of the MMV Hit Generation Library 1 (HGL1) against asexual blood stage Plasmodium falciparum ,using a nano luciferase reporter read-out” (2022).
# About 540 (0.36%) of roughly 150,000 compounds showed an effect of 50% or more. The list shows a part of the results.
# Test system: Plasmodium falciparum
# Test: Primary screen in NF54 nanoGlo assay, in single point, at 2uM, 72h; a lower Z score goes with more inhibition
# Type: functional, Erythrocyte
# Conditions: timepoint 72 hour
Structure (SMILES),% Inhibition [%],Z score
CO[C@@H]1CCC[C@@H]2CN(C(=O)c3noc(C)c3COc3ccccc3)C[C@@H]21,4,-0.41
CC(C)(C)c1cc(COc2ccc3c(c2)CCC3=O)no1,-7,1.3
COc1ccc(CC(=O)NCC(=O)n2nc(C)cc2C)cc1,-3,0.32
COc1ccc(N2CCN(C(=O)Cn3ncc4c([nH]c5ccccc54)c3=O)CC2)cc1,-4,0.57
Cc1ccc2c(c1)C1(OCCCO1)C(=O)N2CCc1ccccc1,0,-0.03
CC(C)CNC(=O)c1[nH]cnc1C(=O)NC1CCCCC1,12,-1.39
CCCN(CC1CC1)C(=O)CCc1nnc(Cc2cccc(C)c2)o1,-8,1.17
Cn1nncc1CNc1ccnn1Cc1cnn(-c2ccccc2)c1,-6,0.54
COCCN1C(=O)C2(CC2)NC12CCC1(CCOCC1)CC2,3,-0.5
CCN1CCCn2nc([C@H]3CCCN(Cc4cccc(OC)n4)C3)cc2C1=O,-16,3.05
COc1ccc(C(=O)NCCc2ccccc2)cc1CN1CC(=O)N2CCC[C@H]2C1=O,-12,2.28
COc1ccc(-c2nc(Nc3nc4ccccc4s3)nc(C)c2C#N)cc1,-14,1.83
Clc1cccc(Nc2nnc(Nc3ccccc3)s2)c1Cl,30,-3.38
C[C@@H](C(=O)O)c1cccc(NC(=O)c2ccnc(C3CC3)n2)c1,-8,1.05
Cn1nnc(NS(=O)(=O)c2ccc(F)cc2)n1,-10,1.95
Cc1ccn(CC(=O)N2CCO[C@@H](CCCc3ccccc3)C2)n1,-2,0.2
C1=CC2CC1CC2CCNCc1ccccc1 (centres undefined),-9,1.2
O=C(NCC1CC2C=CC1CC2)C1(CO)CCOCC1 (centres undefined),-7,1.22
C=CCc1c(C)nc(N)nc1N1CCN(Cc2nccn2C)CC1,-8,1.42
O=C1CCN(S(=O)(=O)c2ccccc2)CCCN(CC2CCCCC2)CCN1,-4,0.53
CCN1C[C@H](NC(=O)Nc2cccc(-c3ccccc3C)c2)[C@@H](OC)C1,2,-0.35

Structure (SMILES),% Inhibition [%],Z score
COc1cnccc1[C@H](C)NC(=O)NCC1(C2CC2)CC1,-17,2.46
CC(C)CCO[C@@H](C)C(=O)NCCc1nc2ccc(F)cc2n1C,-13,1.62
CC(=O)N1CC[C@@]2(CO)CN(Cc3c[nH]nc3-c3ccc(C)cc3)C[C@H]2C1,-7,0.84
CCn1cc(NC(=O)N2CCC[C@H]2CO)cn1,-10,1.47
O=C(Cc1ccc(O)c(Cl)c1)N1CCO[C@H](c2cccnc2)C1,0,-0.04
CCOc1cc(NCc2[nH]nc(C)c2C)nc(C)n1,2,-0.33
O=S(=O)(c1ccccc1)N(C[C@H](O)COCc1ccccc1)c1nc2ccccc2s1,-3,0.4
Cn1cc(S(=O)(=O)N2CC[C@@H](O)[C@H]2c2ccc(Cl)cc2)cn1,-6,0.98
COc1ccc(F)c(F)c1C(=O)NCC1(CN2CCOCC2)CC1,-3,0.67
O=C(O)CC[C@@H]1N[C@]2(C(=O)Nc3ccccc32)[C@@H]2C(=O)N(c3ccc(Cl)cc3)C(=O)[C@H]12,-3,0.28
COCCn1ccnc1C1CCN(C(=O)c2cc(C(C)C)oc2C)CC1,6,-1.22
CCC(=O)NCc1ccccc1-c1ccc(=O)[nH]c1,-8,1.15
Cn1nccc1CNS(=O)(=O)C1(COCc2ccccc2)CC1,16,-1.88
Cc1c(NC(=O)N2CCCCCCC2)cc2[nH]cnc2c1C,-9,1.16
CC(C)(O)C1CN(C(=O)NCCc2cc(F)c(F)c(F)c2)C1,-6,0.84
O=C(CC[C@H]1CCCN(C(=O)c2onc3c2CCCC3)C1)N1CCN(c2ccccn2)CC1,-7,1.35
Cc1sc(-c2noc(C3CCC3)n2)cc1NC(=O)C1CCCCC1,6,-0.6
Cc1n[nH]c([C@@H]2CN(c3ccnc(C(F)(F)F)c3)CCO2)n1,4,-0.84
CCCC(=O)NCC(=O)NC[C@H](O)c1c(Cl)cccc1Cl,-6,1.2
CCN1C(=O)C[C@H](C(=O)NC2CCOCC2)[C@H]1c1nccn1CC,3,-0.53
Cc1ccc(NC(=O)N[C@H]2CCO[C@@H]2c2ccncc2)cc1S(C)(=O)=O,-8,1.26
